From article PMC9911399, “Two distinct binding modes provide the RNA-binding protein RbFox with extraordinary sequence specificity”
Positions count from the first letter of the chain named. This is one part of the list.

T1: RBFOX1 RRM RbFoxmut (Fox-RRM*) (Homo sapiens, UniProt Q9NWB1 109-208, R118D;E147R;N151S;E152T)
T1 sequence: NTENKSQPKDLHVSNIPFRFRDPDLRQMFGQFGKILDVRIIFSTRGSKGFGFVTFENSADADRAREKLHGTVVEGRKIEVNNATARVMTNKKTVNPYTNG

B1: CAUUGGC (DNA:RNA)
RNA: GGGAGACCGGAAUUCAGAUUGUCCCAUUGGCUUAAAUCCCGUCGUAGCCACCA
DNA 1: CAATCTGAATTCCGGTCTCCC
DNA 2: TGGTGGCTACGACGGGATT
B2: UCUAUGG (DNA:RNA)
RNA: B1 RNA with C25U, A26C, U28A, G29U, C31G
DNA 1: CAATCTGAATTCCGGTCTCCC
DNA 2: TGGTGGCTACGACGGGATT
B3: AUCUUAC (DNA:RNA)
RNA: B1 RNA with C25A, A26U, U27C, G29U, G30A
DNA 1: CAATCTGAATTCCGGTCTCCC
DNA 2: TGGTGGCTACGACGGGATT
B4: GAUUCGA (DNA:RNA)
RNA: B1 RNA with C25G, G29C, C31A
DNA 1: CAATCTGAATTCCGGTCTCCC
DNA 2: TGGTGGCTACGACGGGATT
B5: UUUGAUG (DNA:RNA)
RNA: B1 RNA with C25U, A26U, U28G, G29A, G30U, C31G
DNA 1: CAATCTGAATTCCGGTCTCCC
DNA 2: TGGTGGCTACGACGGGATT
B6: CUAGCUC (DNA:RNA)
RNA: B1 RNA with A26U, U27A, U28G, G29C, G30U
DNA 1: CAATCTGAATTCCGGTCTCCC
DNA 2: TGGTGGCTACGACGGGATT
B7: GCGCAUG (DNA:RNA)
RNA: GGGAGACCGGAAUUCAGAUUGUCCGCGCAUGUUAAAUCCCGUCGUAGCCACCA
DNA 1: CAATCTGAATTCCGGTCTCCC
DNA 2: TGGTGGCTACGACGGGATT
B8: ACUUCAA (DNA:RNA)
RNA: B1 RNA with C25A, A26C, G29C, G30A, C31A
DNA 1: CAATCTGAATTCCGGTCTCCC
DNA 2: TGGTGGCTACGACGGGATT
B9: UCCGCCA (DNA:RNA)
RNA: B7 RNA with G25U, G27C, C28G, A29C, U30C, G31A
DNA 1: CAATCTGAATTCCGGTCTCCC
DNA 2: TGGTGGCTACGACGGGATT
B10: GCGAGGA (DNA:RNA)
RNA: B7 RNA with C28A, A29G, U30G, G31A
DNA 1: CAATCTGAATTCCGGTCTCCC
DNA 2: TGGTGGCTACGACGGGATT
B11: GCACUUU (DNA:RNA)
RNA: B7 RNA with G27A, A29U, G31U
DNA 1: CAATCTGAATTCCGGTCTCCC
DNA 2: TGGTGGCTACGACGGGATT
B12: AGGAGGU (DNA:RNA)
RNA: B1 RNA with C25A, A26G, U27G, U28A, C31U
DNA 1: CAATCTGAATTCCGGTCTCCC
DNA 2: TGGTGGCTACGACGGGATT
B13: UGCGAAU (DNA:RNA)
RNA: B7 RNA with G25U, C26G, G27C, C28G, U30A, G31U
DNA 1: CAATCTGAATTCCGGTCTCCC
DNA 2: TGGTGGCTACGACGGGATT
B14: AGUCAUU (DNA:RNA)
RNA: B7 RNA with G25A, C26G, G27U, G31U
DNA 1: CAATCTGAATTCCGGTCTCCC
DNA 2: TGGTGGCTACGACGGGATT
B15: AACUCAG (DNA:RNA)
RNA: B1 RNA with C25A, U27C, G29C, G30A, C31G
DNA 1: CAATCTGAATTCCGGTCTCCC
DNA 2: TGGTGGCTACGACGGGATT
B16: AAUGCGC (DNA:RNA)
RNA: B1 RNA with C25A, U28G, G29C
DNA 1: CAATCTGAATTCCGGTCTCCC
DNA 2: TGGTGGCTACGACGGGATT
B17: UUCGAUC (DNA:RNA)
RNA: B7 RNA with G25U, C26U, G27C, C28G, G31C
DNA 1: CAATCTGAATTCCGGTCTCCC
DNA 2: TGGTGGCTACGACGGGATT
B18: CUAGACU (DNA:RNA)
RNA: B1 RNA with A26U, U27A, U28G, G29A, G30C, C31U
DNA 1: CAATCTGAATTCCGGTCTCCC
DNA 2: TGGTGGCTACGACGGGATT
B19: GUCUUCA (DNA:RNA)
RNA: B1 RNA with C25G, A26U, U27C, G29U, G30C, C31A
DNA 1: CAATCTGAATTCCGGTCTCCC
DNA 2: TGGTGGCTACGACGGGATT
B20: GACGGGC (DNA:RNA)
RNA: B1 RNA with C25G, U27C, U28G
DNA 1: CAATCTGAATTCCGGTCTCCC
DNA 2: TGGTGGCTACGACGGGATT

Target: T1, RBFOX1 RRM RbFoxmut (Fox-RRM*)
Assay: EMSA; HiTS-Eq, 1 nM pool, 10 min; buffer printed only for the single-RNA assays: 10 mM Tris pH 7.5, 150 mM NaCl, 3.4 mM EDTA, 0.001% NP-40, 30 C
Conditions: tags: His6 N-terminal (pET28a); label: 5' 32P
Summary of the method: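 Purified RbFox RRM, wild type or mutant, was incubated for 10 min in 50 µL with 1 nM of a 5′-radiolabelled RNA pool carrying 7 randomized nucleotides, whose flanks were annealed to DNA oligonucleotides, over a series of increasing protein concentrations. Unbound RNA was resolved on 8% native PAGE, cut out, reverse-transcribed, barcoded by PCR and sequenced on an Illumina HiSeq 2500. Relative association constants were derived from changes in read counts for each RNA species versus the control reaction and normalised to the cognate motif.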

Binder | binding signal
B1 | 0.134 KA relative to UGCAUGU
B2 | 0.121 KA relative to UGCAUGU
B3 | 0.12 KA relative to UGCAUGU
B4 | 0.167 KA relative to UGCAUGU
B5 | 0.125 KA relative to UGCAUGU
B6 | 0.0876 KA relative to UGCAUGU
B7 | 1.33 KA relative to UGCAUGU
B8 | 0.0738 KA relative to UGCAUGU
B9 | 0.0799 KA relative to UGCAUGU
B10 | 0.0692 KA relative to UGCAUGU
B11 | 0.0764 KA relative to UGCAUGU
B12 | 0.121 KA relative to UGCAUGU
B13 | 0.115 KA relative to UGCAUGU
B14 | 0.0793 KA relative to UGCAUGU
B15 | 0.0765 KA relative to UGCAUGU
B16 | 0.0945 KA relative to UGCAUGU
B17 | 0.0569 KA relative to UGCAUGU
B18 | 0.0561 KA relative to UGCAUGU
B19 | 0.203 KA relative to UGCAUGU
B20 | 0.0747 KA relative to UGCAUGU
